Measured values published in the supplement of paper PMC4604168 (melanoma cell lines).
The list shows a part of the results. Many values rest on one well or one pass, so single values are uncertain.

Columns and labels:
Assay in all cases: cell count relative to DMSO control; melanoma cells; higher = more viable cells
Settings in all cases: library dose: standard library concentration; 72 h
G361 = system: G361
IPC-298 = system: IPC-298
IST-MEL1 = system: IST-MEL1
LB2518-MEL = system: LB2518-MEL
LOXIMVI = system: LOXIMVI
MEL-HO = system: MEL-HO
MZ2-MEL = system: MZ2-MEL
MeWo = system: MeWo
RPMI7951 = system: RPMI7951
RVH-421 = system: RVH-421
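Also: cells treated in 1,536-well plates, then fixed and DAPI-stained, with nuclei counted from automated high-throughput microscope images.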

Structure (SMILES)	cell count (G361)	cell count (IPC-298)	cell count (IST-MEL1)	cell count (LB2518-MEL)	cell count (LOXIMVI)	cell count (MEL-HO)	cell count (MZ2-MEL)	cell count (MeWo)	cell count (RPMI7951)	cell count (RVH-421)
C[C@]1(O)C[C@@H](c2nc(-c3ccc4ccc(-c5ccccc5)nc4c3)c3c(N)nccn32)C1 + O=C(O)[C@@H]1[O][Sb](=[O])([O][Sb]2(=[O])[O][C@H]([C@H](O)CO)[C@H](O)[C@H](C(=O)O)[O]2)[O][C@H]([C@H](O)CO)[C@@H]1O [stibogluconate] (first compound 2 µM, partner dose 10 µM)	99.3%	96.3%	98.6%	104%	75.2%	104%	111%	85.6%	69.2%	226%
COc1cc([C@@H]2c3cc4c(cc3[C@@H](O[C@@H]3O[C@@H]5CO[C@@H](C)O[C@H]5[C@H](O)[C@H]3O)[C@H]3COC(=O)[C@H]23)OCO4)cc(OC)c1O [etoposide] + Cn1cncc1[C@@](N)(c1ccc(Cl)cc1)c1ccc2c(c1)c(-c1cccc(Cl)c1)cc(=O)n2C [tipifarnib] (first compound 0.1 µM, partner dose 0.05 µM)	74.7%	77.9%	142%	67.5%	88.2%	96.7%	97.8%	84.4%	90.2%	112%
Cn1cnc2c(F)c(Nc3ccc(Br)cc3Cl)c(C(=O)NOCCO)cc21 [selumetinib] + CS(=O)(=O)CCNCc1ccc(-c2ccc3ncnc(Nc4ccc(OCc5cccc(F)c5)c(Cl)c4)c3c2)o1 [lapatinib] (first compound 0.075 µM, partner dose 4 µM)	49.5%	54.4%	72.7%	52.6%	114%	79.9%	69.1%	68.2%	75.6%	138%
CCN(CC)CCNC(=O)c1c(C)[nH]c(/C=C2\C(=O)Nc3ccc(F)cc32)c1C [sunitinib] + COc1ccc(Cl)c(Nc2nc3ccccc3nc2NS(=O)(=O)c2cccc(NC(=O)C(C)(C)N)c2)c1 [XL147] (first compound 2 µM, partner dose 4 µM)	76.9%	68.7%	68.5%	58.8%	142%	74.8%	74.7%	54.9%	62%	76.2%
COc1cc([C@@H]2c3cc4c(cc3[C@@H](O[C@@H]3O[C@@H]5CO[C@@H](C)O[C@H]5[C@H](O)[C@H]3O)[C@H]3COC(=O)[C@H]23)OCO4)cc(OC)c1O [etoposide] + O=C(Nc1cc(C(F)(F)F)cc(C(F)(F)F)c1)c1cc(Cl)ccc1O [IMD0354] (first compound 0.1 µM, partner dose 0.08 µM)	83.3%	72.8%	87.5%	78.3%	96.1%	81.8%	72.6%	88%	92.3%	92%
CCN(CC)CCNC(=O)c1c(C)[nH]c(/C=C2\C(=O)Nc3ccc(F)cc32)c1C [sunitinib] + CN1CCN(c2ccc3nc(-c4c(N)c5c(F)cccc5[nH]c4=O)[nH]c3c2)CC1 [Dovitinib] (first compound 2 µM, partner dose 0.5 µM)	57.9%	46.3%	98.5%	47.9%	106%	61.9%	44.2%	40.3%	69.7%	74.1%
C[C@]1(O)C[C@@H](c2nc(-c3ccc4ccc(-c5ccccc5)nc4c3)c3c(N)nccn32)C1 + O=C(O)C(=O)Nc1sc2c(c1C(=O)O)CCNC2 [TCS401] (first compound 2 µM, partner dose 8.33333 µM)	73.4%	80%	100%	85.8%	73.4%	75.7%	86%	81.5%	111%	113%
Cn1cnc2c(F)c(Nc3ccc(Br)cc3Cl)c(C(=O)NOCCO)cc21 [selumetinib] + COc1ccc(COc2ccc(Cc3cnc(N)nc3N)cc2OC)cc1 [GW2580] (first compound 0.075 µM, partner dose 5 µM)	74.5%	53.6%	105%	50.9%	134%	87.1%	72.8%	76.4%	168%	83.5%
COc1cc([C@@H]2c3cc4c(cc3[C@@H](O[C@@H]3O[C@@H]5CO[C@@H](C)O[C@H]5[C@H](O)[C@H]3O)[C@H]3COC(=O)[C@H]23)OCO4)cc(OC)c1O [etoposide] + CCc1ccc(CCOc2ccc(CC3SC(=O)NC3=O)cc2)nc1 [pioglitazone] (first compound 0.1 µM, partner dose 10 µM)	98.6%	58.8%	109%	89.5%	185%	99.6%	68.1%	87%	106%	96.9%
Cn1cnc2c(F)c(Nc3ccc(Br)cc3Cl)c(C(=O)NOCCO)cc21 [selumetinib] + COc1cc(Nc2ncc(F)c(Nc3ccc4c(n3)NC(=O)C(C)(C)O4)n2)cc(OC)c1OC [Tamatinib] (first compound 0.075 µM, partner dose 2 µM)	54.8%	63.4%	60.3%	40.5%	12%	66.4%	61.8%	60.1%	25.2%	83.5%
COc1cc([C@@H]2c3cc4c(cc3[C@@H](O[C@@H]3O[C@@H]5CO[C@@H](C)O[C@H]5[C@H](O)[C@H]3O)[C@H]3COC(=O)[C@H]23)OCO4)cc(OC)c1O [etoposide] + Oc1cc(-c2nc(-c3ccccc3)[nH]c2-c2ccncc2)ccc1Cl [L779450] (first compound 0.1 µM, partner dose 1 µM)	65.8%	71.7%	88%	71.9%	95.1%	90.6%	76.8%	75.3%	73.9%	73.9%
C[C@]1(O)C[C@@H](c2nc(-c3ccc4ccc(-c5ccccc5)nc4c3)c3c(N)nccn32)C1 + CN1CCN(c2ccc3nc(-c4c(N)c5c(F)cccc5[nH]c4=O)[nH]c3c2)CC1 [Dovitinib] (first compound 2 µM, partner dose 0.5 µM)	50.9%	61.5%	69.5%	50.2%	72.1%	78%	50.4%	41.7%	80.9%	78.9%
COc1cc([C@@H]2c3cc4c(cc3[C@@H](O[C@@H]3O[C@@H]5CO[C@@H](C)O[C@H]5[C@H](O)[C@H]3O)[C@H]3COC(=O)[C@H]23)OCO4)cc(OC)c1O [etoposide] + CN(C)S(=O)(=O)c1ccc2c(c1)/C(=C/c1cc3c([nH]1)CCCC3)C(=O)N2 [SU6656] (first compound 0.1 µM, partner dose 2 µM)	71.9%	64.9%	84.1%	70.5%	99.2%	87.9%	91.2%	77.9%	89%	91.4%
COc1cc([C@@H]2c3cc4c(cc3[C@@H](O[C@@H]3O[C@@H]5CO[C@@H](C)O[C@H]5[C@H](O)[C@H]3O)[C@H]3COC(=O)[C@H]23)OCO4)cc(OC)c1O [etoposide] + N#Cc1c(O)c2c(-c3ccc(-c4ccccc4O)cc3)csc2[nH]c1=O [A769662] (first compound 0.1 µM, partner dose 10 µM)	81.2%	77.7%	87.9%	94.9%	85.8%	90%	74.1%	88%	100%	90.9%
COc1cc([C@@H]2c3cc4c(cc3[C@@H](O[C@@H]3O[C@@H]5CO[C@@H](C)O[C@H]5[C@H](O)[C@H]3O)[C@H]3COC(=O)[C@H]23)OCO4)cc(OC)c1O [etoposide] + Cn1c(Nc2ccc(C(F)(F)F)cc2)nc2cc(Oc3ccnc(-c4ncc(C(F)(F)F)[nH]4)c3)ccc21 [CHIR265] (first compound 0.1 µM, partner dose 0.4 µM)	35.6%	36.9%	81.1%	30.5%	72.2%	63.2%	29.8%	58.5%	52.4%	43.7%
Cn1cnc2c(F)c(Nc3ccc(Br)cc3Cl)c(C(=O)NOCCO)cc21 [selumetinib] + Nc1cccc2c1CN(C1CCC(=O)NC1=O)C2=O [lenalidomide] (first compound 0.075 µM, partner dose 5 µM)	69%	50.2%	79.1%	55.5%	116%	72.3%	62.1%	81%	138%	69.1%
CCN(CC)CCNC(=O)c1c(C)[nH]c(/C=C2\C(=O)Nc3ccc(F)cc32)c1C [sunitinib] + CNC(=O)c1cc(Oc2ccc(NC(=O)Nc3ccc(Cl)c(C(F)(F)F)c3)cc2)ccn1 [sorafenib] (first compound 2 µM, partner dose 2 µM)	89.1%	54.2%	102%	57%	171%	105%	75.8%	46.3%	66.3%	106%
COc1cc([C@@H]2c3cc4c(cc3[C@@H](O[C@@H]3O[C@@H]5CO[C@@H](C)O[C@H]5[C@H](O)[C@H]3O)[C@H]3COC(=O)[C@H]23)OCO4)cc(OC)c1O [etoposide] + CNC(=O)c1cc(Oc2ccc(NC(=O)Nc3ccc(Cl)c(C(F)(F)F)c3)cc2)ccn1 [sorafenib] (first compound 0.1 µM, partner dose 2 µM)	88.8%	69.9%	101%	68.8%	153%	112%	69%	77.7%	98.1%	100%
Cn1cnc2c(F)c(Nc3ccc(Br)cc3Cl)c(C(=O)NOCCO)cc21 [selumetinib] + CN(C)S(=O)(=O)c1ccc2c(c1)/C(=C/c1cc3c([nH]1)CCCC3)C(=O)N2 [SU6656] (first compound 0.075 µM, partner dose 2 µM)	57%	51.6%	75.1%	36.4%	96%	75.6%	41.6%	57.4%	65.6%	73.8%
C[C@]1(O)C[C@@H](c2nc(-c3ccc4ccc(-c5ccccc5)nc4c3)c3c(N)nccn32)C1 + NC1(c2ccc(-c3nc4ccn5c(=O)[nH]nc5c4cc3-c3ccccc3)cc2)CCC1 [MK2206] (first compound 2 µM, partner dose 2 µM)	73.3%	78.5%	91.3%	72.4%	59%	76.3%	103%	86.2%	84.6%	94.8%
